# Results published in the supplement of paper PMC3724861.
# Some of the results follow.
# Tested on: T1, Caupolican (Caup) homeodomain DNA-binding domain
# T1 sequence: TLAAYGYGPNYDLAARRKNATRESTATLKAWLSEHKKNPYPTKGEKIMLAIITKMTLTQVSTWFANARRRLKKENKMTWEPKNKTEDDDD
# Test: PBM E-score (8-mer, recovered from the published 9-mer minima) (E-score (dimensionless, -0.5 to 0.5)); Drosophila protein; higher = stronger relative binding preference, active = 0.31 or more
# Summary of the method: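 Caup's homeodomain DNA-binding domain (residues 214-303) was made by in vitro transcription and translation and applied at 100 nM to custom-designed protein binding microarrays. Each value is an enrichment score that gives relative binding preference for a short DNA word, with higher meaning stronger. The 8-mer values were recovered from published 9-mer scores, each of which was the minimum of its two constituent 8-mer scores. A cutoff of 0.31 marks candidate sites.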
row,Sequence,PBM E-score
1,AGCGAGGG,inactive: -0.182
2,ACCCGAGG,inactive: -0.193
3,TGTGTTAA,active: 0.32
4,TACTGGGA,≥ 0.0611
5,CTCTTGTC,inactive: 0.217
6,AGATTTAG,inactive: 0.063
7,TACATTAA,inactive: 0.28
8,GCGGGCCA,inactive: -0.261
9,GTGTAATA,active: 0.315
10,ATGGCCAA,inactive: 0.0326
11,ATTCATGA,≥ 0.162
12,CCACCGAA,inactive: -0.0285
13,ACGCCATC,inactive: -0.128
14,CAAGGGCA,inactive: -0.127
15,ATGAGACC,inactive: -0.00544
16,AATTATCC,inactive: 0.12
17,ACATGGTA,active: 0.418
18,GAGCGACC,inactive: -0.158
19,CAAACCCA,inactive: 0.0324
20,CTAAGAAG,inactive: 0.0417
21,CGGACAAG,inactive: 0.258

row,Sequence,PBM E-score
1,CACTCCCG,inactive: -0.132
2,GAAATGTC,inactive: 0.114
3,AAGATTGA,inactive: 0.114
4,AACACGCC,inactive: 0.11
5,GGATAAGA,inactive: 0.0446
6,AGTAAATC,inactive: 0.0588
7,CGTATCCA,inactive: -0.0243
8,GAATAGTA,inactive: 0.11
9,CGGGATTA,inactive: 0.0205
10,ATAAATGG,inactive: 0.0743
11,ATGACGAG,inactive: -0.00718
12,ACTGAGAA,inactive: -0.0461
13,GCAACCCC,inactive: -0.229
14,ACGGACTC,inactive: -0.103
15,GCTCTTTA,inactive: -0.0507
16,ACATTTAT,inactive: 0.251
17,AAACGGTA,inactive: -0.00331
18,ACCCACGT,≥ -0.0225
19,CTCTCTGC,inactive: -0.113
20,ATCGTCAA,inactive: 0.0884
21,CACCTTAG,inactive: -0.0619

row,Sequence,PBM E-score
1,AGCATTAG,inactive: 0.0826
2,ATCGTTGA,inactive: 0.0288
3,CACTTCCG,inactive: -0.121
4,CGCGGGAC,inactive: -0.163
5,CATGGCAC,inactive: -0.00797
6,CGTATCGA,inactive: 0.099
7,CGTGGGCA,inactive: -0.221
8,CGTGAGAA,inactive: -0.0591
9,CCACTCGA,inactive: -0.0253
10,AACATTGA,inactive: 0.243
11,ACGCAAGT,inactive: -0.0112
12,AGTTAGTC,inactive: 0.0092
13,GTGCGACA,inactive: 0.112
14,AGGAATGA,inactive: 0.033
15,CTTTCCAC,inactive: -0.0147
16,ACGTATAC,inactive: 0.11
17,AATTGCGC,inactive: -0.00045
18,CATGGTAA,inactive: 0.271
19,ACCCTCGT,inactive: -0.0438
20,ACTTCCCG,inactive: -0.0748
